The record followed here is a collection of fitness landscapes (doi:10.1016/j.celrep.2020.107928).

B1: Caulobacter ParB omega fusion; a variant is named by its letters at X, in order, B8GW30 (parent)
chain: MESVVVGEPGMSEGRRGLGRGLSALLGEVDAAPAQAPGEQLGGSREAPIEILQRNPDQPRRTFREEDLEDLSNSIREKGVLQPILVRPSPDTAGEYQIVAGERAWRAAQRAGLKTVPIMVRELDDLAVLEIGIIENVQRADLNVLEEALSYKVLMEKFERTQENIAQTIGKSXSHVANXMRLLXLPDEVQSYLVSGELTAXHARAIAAAADPVALAKQIIEGGLSVRETEALARKAPNLSAGKSKGGRPPRVKDTDTQALESDLSSVLGLDVSIDHRGSTGTLTITYATLEQLDDLCNRLTRGI

Over roughly 81,000 sequences, “one-hybrid fitness for binding parS DNA” has its median near -0.17; the highest 2% begin near 0.51. This is one part of the list.

The variants in the assay derive from B1. Description: one-hybrid fitness for binding parS DNA (scaled: cognate 1, non-cognate 0); higher = stronger binding. The following applies: with parS DNA site. In a few lines: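 The reporter was HIS3, with the binding site 19 bp from the promoter, in E. coli USO used for bacterial one-hybrid selection of Caulobacter ParB libraries with four specificity codons randomised. Growth was on M9 lacking histidine, with 0.1 mM IPTG and 5 mM 3-AT, for 48 hours at 37°C. Illumina sequencing covered plasmids before and after selection; three replicate libraries were pooled and variants with under 10 reads dropped. A fitness score is the log change in variant-to-wild-type read ratio, rescaled to the cognate and non-cognate references.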
As for NYTH, the “one-hybrid fitness for binding parS DNA” value is at most 0.2.
The figure for NMVG is at most 0.2; for KMYG it is at most 0.2.
The figure for LSRW is at most 0.2.
Consider KRIH, for which the “one-hybrid fitness for binding parS DNA” value was at most 0.2.
With WILS, the “one-hybrid fitness for binding parS DNA” value was at most 0.2.
With HLAY, the “one-hybrid fitness for binding parS DNA” value is at most 0.2.
Turning to CKKS, the “one-hybrid fitness for binding parS DNA” value is at most 0.2.
The same measure for KFIS: at most 0.2.
RSIQ: the “one-hybrid fitness for binding parS DNA” value was at most 0.2.
The same measure for KKQG: at most 0.2.
Regarding TKMC, the “one-hybrid fitness for binding parS DNA” value was at most 0.2.
With CCDY, the “one-hybrid fitness for binding parS DNA” value was at most 0.2.
The same measure for NMNV: at most 0.2.
The same measure for YNGL: at most 0.2; for GNLP: at most 0.2.
The figure for KYFM is at most 0.2.
For the variant HVRC, the “one-hybrid fitness for binding parS DNA” value was at most 0.2.
The same measure for AKST: at most 0.2; for CVDD: at most 0.2; for GITM: at most 0.2.
Turning to LNMV, the “one-hybrid fitness for binding parS DNA” value was at most 0.2.
The figure for TSMK is at most 0.2; for RGVR it is at most 0.2; for RAMN it is 0.41.
Regarding PAGE, the “one-hybrid fitness for binding parS DNA” value was at most 0.2.
With RMKE, the “one-hybrid fitness for binding parS DNA” value is at most 0.2.
The same measure for DDRV: at most 0.2.
As to IWTC, the “one-hybrid fitness for binding parS DNA” value is at most 0.2.
The same measure for VRRI: at most 0.2.
With TKPP, the “one-hybrid fitness for binding parS DNA” value is at most 0.2.
The same measure for PPSA: at most 0.2.
The same measure for MNRD: at most 0.2; for EADV: at most 0.2; for QCAN: at most 0.2.
The same measure for VLYS: at most 0.2; for RLHF: 0.225; for PLRC: at most 0.2.
IEDE: the “one-hybrid fitness for binding parS DNA” value is at most 0.2.
The figure for PFKV is at most 0.2; for LDTF it is at most 0.2.
The figure for NDQE is at most 0.2; for YWHY it is at most 0.2; for CWHL it is at most 0.2.
The same measure for LLMT: at most 0.2.
LIGN: the “one-hybrid fitness for binding parS DNA” value was at most 0.2.
As for KMTR, the “one-hybrid fitness for binding parS DNA” value is at most 0.2.
On to HVHS, for which the “one-hybrid fitness for binding parS DNA” value is at most 0.2.
RKFR: the “one-hybrid fitness for binding parS DNA” value is at most 0.2.
Regarding EKHT, the “one-hybrid fitness for binding parS DNA” value was at most 0.2.
As for PAVR, the “one-hybrid fitness for binding parS DNA” value was at most 0.2.
For the variant QMDR, the “one-hybrid fitness for binding parS DNA” value was at most 0.2.
In the case of FRER, the “one-hybrid fitness for binding parS DNA” value is at most 0.2.
The same measure for DAFP: at most 0.2; for RRKH: 0.623.
The same measure for KSPC: at most 0.2; for VGWG: at most 0.2.
The same measure for FCPC: at most 0.2; for NKLR: at most 0.2; for SESK: at most 0.2.
Regarding RYQD, the “one-hybrid fitness for binding parS DNA” value was at most 0.2.
With RGHK, the “one-hybrid fitness for binding parS DNA” value is at most 0.2.
With SLYT, the “one-hybrid fitness for binding parS DNA” value was at most 0.2.
The same measure for YRIS: at most 0.2; for ANSC: at most 0.2; for NPAA: at most 0.2.
The figure for TWWG is at most 0.2; for MRTL it is at most 0.2.
The figure for RDRW is at most 0.2; for AWHA it is at most 0.2.
With TSMV, the “one-hybrid fitness for binding parS DNA” value is at most 0.2.
The same measure for IIEV: at most 0.2.
For LLVC, the “one-hybrid fitness for binding parS DNA” value was at most 0.2.
In the case of RWDF, the “one-hybrid fitness for binding parS DNA” value is at most 0.2.
The same measure for NHTL: at most 0.2; for FGYR: at most 0.2; for QRNV: at most 0.2.
With KCSK, the “one-hybrid fitness for binding parS DNA” value is at most 0.2.
The same measure for YTPR: at most 0.2; for SGMR: at most 0.2; for LQRP: at most 0.2.
On to MPAQ, for which the “one-hybrid fitness for binding parS DNA” value was at most 0.2.
As for MNMA, the “one-hybrid fitness for binding parS DNA” value was at most 0.2.
Turning to NRTN, the “one-hybrid fitness for binding parS DNA” value is at most 0.2.
The figure for LNSV is at most 0.2.
The same measure for LRSR: at most 0.2.
On to GVYC, for which the “one-hybrid fitness for binding parS DNA” value is at most 0.2.
In the case of RVNI, the “one-hybrid fitness for binding parS DNA” value is at most 0.2.
The figure for SGGS is at most 0.2; for VFRR it is at most 0.2.
The same measure for VMFV: at most 0.2; for CRNL: at most 0.2; for QSIC: at most 0.2.
The same measure for CLMW: at most 0.2; for FRAT: at most 0.2; for TIAE: at most 0.2.
In the case of NPAQ, the “one-hybrid fitness for binding parS DNA” value was at most 0.2.
The same measure for RAKH: 0.239.
